# Screen size: about 54,000 compounds; about 120 (0.22%) were called active. This list was built around the results that the source calls inconclusive (neither active nor inactive); the mix of calls is not that of the screen. Calls come from the whole dose curve; as a rule, active = well fitted inhibition curve with a large enough effect; inconclusive = small, poorly fitted or top-dose-only effect, or effect the other way; inactive = flat fitted curve, though single readings scatter. Potencies of inconclusive entries are left out as doubtful fits.
# Molecular target: Fumarate hydratase, mitochondrial (Homo sapiens) (UniProt P07954)
# Assay: Identification of activators of human fumarate hydratase by quantitative high-throughput screening; note: the screen sought activators but most active calls are inhibition curves; nearly all actives have a fitted effect of over 45% in size
# Settings: FH coupled MDH/diaphorase resazurin fluorescence, 15 min; activity change, negative = inhibition: at 79.9 µM (top of the series)
# % is set by controls: 0 for no effect and ±100 for the full control effect; potency is the fitted concentration of half-maximal effect; tags give direction and shape of the fitted curve.
# Sequence of UniProt P07954 (P07954 whole entry, looked up): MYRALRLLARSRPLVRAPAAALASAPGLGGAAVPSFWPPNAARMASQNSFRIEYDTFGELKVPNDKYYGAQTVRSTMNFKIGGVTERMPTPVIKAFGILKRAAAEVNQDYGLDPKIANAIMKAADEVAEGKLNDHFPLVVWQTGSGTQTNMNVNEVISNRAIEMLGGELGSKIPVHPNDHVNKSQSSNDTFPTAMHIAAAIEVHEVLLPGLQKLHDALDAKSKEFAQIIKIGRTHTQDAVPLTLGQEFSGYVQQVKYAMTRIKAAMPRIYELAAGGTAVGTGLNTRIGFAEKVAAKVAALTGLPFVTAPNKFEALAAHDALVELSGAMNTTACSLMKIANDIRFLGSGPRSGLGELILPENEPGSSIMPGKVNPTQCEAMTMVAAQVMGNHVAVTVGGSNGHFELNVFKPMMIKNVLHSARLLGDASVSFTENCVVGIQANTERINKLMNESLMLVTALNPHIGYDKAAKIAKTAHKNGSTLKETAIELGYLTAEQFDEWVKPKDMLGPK
SMILES,Potency,"activity change, negative = inhibition"
O=S(=O)(Nc1cc(F)ccc1F)c1ccc2[nH]c3c(c2c1)CCCC3,"inconclusive [inhibitor, single point]",
NS(=O)(=O)c1ccc(CCNc2nccn(-c3cccc(C(F)(F)F)c3)c2=O)cc1,,inactive: 13.8%
O=C(Nc1ccc(F)c(F)c1)c1cc(S(=O)(=O)NC2CCCCCC2)ccc1F,"inconclusive [inhibitor, partial curve, poor fit]",
CCOC(=O)c1sc2ccccc2c1S(=O)(=O)Nc1ccc(CC)cc1,"inconclusive [inhibitor, partial curve, poor fit]",
CCOc1ccccc1NC(=O)CSc1nnc2[nH]c(=O)cc(-c3ccccc3)n12,,inconclusive: -36.4% [inhibitor]
N#CC(c1ccnc(NCCc2cccnc2)n1)c1nc2ccccc2s1 (centres undefined),,inactive: -3.29% [at 53.3 µM]
COc1cc(OC)c(/C=C2/C(=O)Nc3ccccc32)c(OC)c1,,inactive: -22.7% [at 53.3 µM]
O=C1N(Cc2ccccc2)c2ccc(Cl)cc2C1(O)c1c[nH]c2ccccc12 (centres undefined),"inconclusive [inhibitor, partial curve, poor fit]",
Oc1cc(CNC(=S)/C=C/c2cc(O)c(O)c(Br)c2)cc(O)c1O,"inconclusive [inhibitor, partial curve, poor fit]",
CCC1CN(C(=O)NCc2ccc(C)cc2)c2cc(Cl)ccc2O1 (centres undefined),"inconclusive [inhibitor, single point]",
CC(Nc1ncnc2c1cnn2-c1cccc(Cl)c1)c1ccccc1 (centres undefined),"inconclusive [inhibitor, single point]",
COc1cc(Cl)c(C)cc1NC(=O)Cn1cnc2sc(C)c(S(=O)(=O)N3CCCCC3)c2c1=O,"inconclusive [inhibitor, partial curve, poor fit]",
O=S(=O)(c1ccccc1)n1nc(-c2ccc(Cl)cc2)nc1NCc1ccc(F)cc1,"inconclusive [inhibitor, single point]",
CCCCSCCCNC(=O)c1cn(CC)c2ccc(S(=O)(=O)N(C)C3CCCCC3)cc2c1=O,"inconclusive [inhibitor, single point]",
C#Cc1cccc(Nc2ncnc3cc(OC)c(OCCCCCCC(=O)NO)cc23)c1,inactive,
CCOc1ccc(NC(=O)c2cnn3c2NC(c2ccccc2)=CC3c2cccc(OC)c2OC)cc1 (centres undefined),"inconclusive [inhibitor, partial curve]",
Cc1cc(C)c(NC(=O)CN(c2ccccc2)S(=O)(=O)N(C)C)c(C)c1,,inactive: 1.9%
O=C(Nc1ccccc1)Nc1ccc(-c2ccc(C(=O)C3CCCC3C(=O)O)cc2)cc1 (centres undefined),,inactive: -17%
COc1cc(NC(=O)CSc2ccc(-c3sc(C)nc3C)nn2)cc(OC)c1,"inconclusive [inhibitor, partial curve, poor fit]",
Cc1nn(CCC(=O)Nc2cccc(C#N)c2)c(C)c1S(=O)(=O)N1CCC(C)CC1,"inconclusive [activator, full curve]",

SMILES,Potency,"activity change, negative = inhibition"
Cc1nc2nc(SCC(=O)NCCc3ccc(Cl)cc3)nn2c(C)c1Cc1c(F)cccc1Cl,"inconclusive [inhibitor, partial curve]",
Cc1cc(C)cc(NC(=O)C2CCCN(c3nnc(-n4c(C)ccc4C)s3)C2)c1 (centres undefined),"inconclusive [inhibitor, partial curve, poor fit]",
COC(=O)c1ccc(NC(=O)C(c2ccccc2)N2Cc3ccccc3C2=O)cc1 (centres undefined),,inconclusive: -31% [inhibitor]
CCOC(=O)c1c(NC(=O)COc2ccc(OC)cc2)sc(C(=O)N(CC)CC)c1C,"inconclusive [inhibitor, partial curve]",
O=C1NC(=O)/C(=C/c2ccc3c(c2)OCO3)S1,active: 31.6 µM,
CC1CCc2c(sc3nnn(CC(=O)Nc4ccccc4Cl)c(=O)c23)C1 (centres undefined),"inconclusive [inhibitor, partial curve]",
Cc1ccc(Nc2c3c(nc4ccccc24)CCC3)cc1F,,inactive: -15.3%
CCOC(=O)c1ccc(-c2ccc(/C=C(\C#N)C(=O)Nc3c(C)cccc3Cl)o2)cc1,"inconclusive [inhibitor, single point]",
Cc1cccc(Nc2nc(Nc3cccc(C)c3)nc(N3CCOCC3)n2)c1,"inconclusive [inhibitor, partial curve, poor fit]",
CC(=O)[C@H]1CCC2C3CC=C4C[C@@H](OS(=O)(=O)O)CC[C@]4(C)C3CC[C@@]21C (some centres undefined),"inconclusive [inhibitor, single point]",
O=S(=O)(NCc1ccc(F)cc1)c1ccc2[nH]c3c(c2c1)CCCCC3,"inconclusive [inhibitor, partial curve, poor fit]",
Cc1cc(NC(=O)CN(C)S(=O)(=O)c2ccc3c(c2)CCCC(=O)N3)ccc1Br,,inactive: -13.7%
Cc1ccccc1-c1nc2c(c(SCc3cccc(Cl)c3)n1)Cc1c(CO)cnc(C)c1O2,"inconclusive [inhibitor, partial curve, poor fit]",
Cc1cc(C)n2nc(SCC(=O)Nc3ccc(O)cc3)nc2n1,"inconclusive [inhibitor, partial curve, poor fit]",
CCOc1ccc(N(CC)C(=O)c2cc3c(=O)oc4ccccc4c3s2)cc1,"inconclusive [inhibitor, partial curve, poor fit]",
Cc1ccc(C(=O)Nc2ccc3c(c2)N(C)C(=O)c2ccccc2S3)cc1F,"inconclusive [inhibitor, partial curve, poor fit]",
Cc1ccc(NS(=O)(=O)c2c(C(=O)N3CCCCCC3)c(C)n(C)c2C)cc1F,"inconclusive [inhibitor, single point]",
COC(=O)C[C@@H]1C(C(=O)O)=CO[C@@H](O[C@@H]2O[C@H](CO)[C@@H](O)[C@H](O)[C@H]2O)/C1=C\COC(=O)/C=C\c1ccccc1,,inactive: 22.7% [at 53.3 µM]
O=C(Nc1ccc(Br)cc1)c1ccc(Br)c(S(=O)(=O)NCc2ccccc2)c1,"inconclusive [inhibitor, partial curve]",
